In publication PMC12136788:
This is one part of the list.

T1: UNK ZnF1-3 (human, UniProt Q9C0B0 31-174)
T1 sequence: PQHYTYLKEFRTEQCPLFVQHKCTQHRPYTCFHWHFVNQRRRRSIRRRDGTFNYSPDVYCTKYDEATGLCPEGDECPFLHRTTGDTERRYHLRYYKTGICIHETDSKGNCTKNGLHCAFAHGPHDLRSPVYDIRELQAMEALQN

B1: 55044860_55044980_3730_CDS_ENSMUSG00000025982_ENSMUST00000027127|mouse|control|control (ssRNA)
RNA: GGGAGUUCUACAGUCCGACGAUCUACAUGGGGAGAUGUCUCAAACACAUUAGGCCACACAUAGUUCAGUAAGUGAUUCAGAGAAUCCUCACAGCCAAAUCCGUAAACACCAAGUGACAUGUGCUGCACCACUGCACUCGCUGUCAACAGAGGAUUGAGCAUCA
B2: chr7:54106310:54106311:+_ENSMUSG00000063229_ENSMUST00000048209|mus_mus|FALSE|FALSE (ssRNA)
RNA: GGGAGUUCUACAGUCCGACGAUCCCUCUCUCCCAUCAGGUAACGGAACCGCGCUGAAUCCAGAUUGCAACCACUUCCAAUUACUCGGUUUUUGGGAAAGCCACUGAUUUUCCAAGCCACGUAGGUCAAGAUAUCCACUGGAUUCAACAGAGGAUUGAGCAUCA
B3: chr19:8913615:8913616:-_ENSMUSG00000071658_ENSMUST00000096259|mus_hu|mus_mus_mus_hu_False|1_1 (ssRNA)
RNA: GGGAGUUCUACAGUCCGACGAUCAGGGUACCAAAACCUUCUGCCUGAAAUGGGUGCCCCACCCAGUAGGGAGUUGCAGCUGAAAGUAUCUGAUGCAGAAGCAGUGACUAUACGAAAGGAGGCCCCUGGGGAGGGCCCGAGAUCCAACAGAGGAUUGAGCAUCA
B4: chr1:213178640:213178641:-_ENSG00000174606_ENST00000366962|hu_hu|FALSE|FALSE (ssRNA)
RNA: GGGAGUUCUACAGUCCGACGAUCUGCUACGCAGAUUGCAGGGCAGGCAGCAUAUGGAAUUUUGGGCUGUAAGAGUAAAACUAAUCCAACAUUGUCUCUGUCCAACAGAGAAAUAUCAGGGCGGAAGAAUUCCACUGGGUUCACCAACAGAGGAUUGAGCAUCA
B5: chr3:176740097:176740098:-_ENSG00000177565_ENST00000430069|hu_mus|hu_hu_hu_mus_True|18_18 (ssRNA)
RNA: GGGAGUUCUACAGUCCGACGAUCUGUUUUGUAUACCACAAAAGGAGGCACUUUCAGUAUCUGCAAAAGGUGUUUAGUCCUAAAACAUACUCACCUAGAGGAUAACUCAGGAAAACAUCAAUACAAUCUCUAAGACCUACUCCACAACAGAGGAUUGAGCAUCA
B6: chr3:95657547:95657548:-_ENSMUSG00000015748_ENSMUST00000015892|mus_hu|motif|central (ssRNA)
RNA: GGGAGUUCUACAGUCCGACGAUCCUUUGACAGUGCCAUUUUUCAGGAAAAAGAGAACAAUAGCUCAAACAGGACUCAAUACGGCACCUCACAAACUUCAGCCCCUGAGACGGAGCCCGAACGUUACACCGGAACCGGAAACCUCAACAGAGGAUUGAGCAUCA
B7: chr11:50112788:50112789:-_ENSMUSG00000020368_ENSMUST00000020637|mus_mus|motif|central (ssRNA)
RNA: GGGAGUUCUACAGUCCGACGAUCGUCGGAUGUCAUGGACCAGAGCUCCAAACCAAUAGCACUGAAAGGAGUCAUCUUAAAAGGUUCGGGGUCUUCAAAGAAAUCUGGAUUUGGUAUUUUCCUUGGUUUCCAGAUUCCCUGGUACAACAGAGGAUUGAGCAUCA
B8: chr17:57724784:57724785:+_ENSG00000141367_ENST00000269122|hu_hu|motif|central (ssRNA)
RNA: GGGAGUUCUACAGUCCGACGAUCUUUCAUUUCAAUGUUAAAAAUCUGAAGAGUUUUCCCAGCUUUCAGUGCAAUUACUUUGCGGGCUGGAUUCAUGAUGGCGCUGUCUGCUGAAAUUGGUCUUCGAAUUGGAUUACUUGGGUCCAACAGAGGAUUGAGCAUCA
B9: chr12:80258887:80258888:-_ENSMUSG00000021124_ENSMUST00000055262|mus_hu|motif|central (ssRNA)
RNA: GGGAGUUCUACAGUCCGACGAUCGUUUACCAGUCUACUCUUGGUACGUUCUAACUGGUCUCGUUGUUCCCCCAGCUCUUCGGUGAUUUCUGAGCCAAUCUGGUCAGUCUCUGUGGCAAUCCGAUGAGAACGUUCAAUACUUUGCAACAGAGGAUUGAGCAUCA
B10: chr1:155330963:155330964:-_ENSMUSG00000042699_ENSMUST00000042141|perfect_dup|motif|central (ssRNA)
RNA: GGGAGUUCUACAGUCCGACGAUCCCCUUCUACUCGAACCUCACACAUGAAUUUCUGUCUGUUUUUGUUUCCUACUGCUCGGAUUUCAUAGGCUGGAGUCAUCUUCCUUUUGCCACACCAGGCAUACAGAAAAUUUUUAAUGUCCAACAGAGGAUUGAGCAUCA
B11: 220357383_220357503_2049_CDS_ENSG00000118873_ENST00000358951|human|control|control (ssRNA)
RNA: GGGAGUUCUACAGUCCGACGAUCAGAGAAUGGUGUGUCUAAAUGAAAAUCAAGGGAAUUUAAUUGACUGACAGACUCAUAGAGUUGCAGCAGUUUUAGUUUAUUGGCACAAAACUGUAGCAAUCCUUCAUCAACAGACUCAAGCAACAGAGGAUUGAGCAUCA
B12: chr2:217001844:217001845:+_ENSG00000079246_ENST00000392132|hu_hu|hu_hu_hu_mus_False|78_78 (ssRNA)
RNA: GGGAGUUCUACAGUCCGACGAUCACCAACUUGAGGAUUAGAUCUUUUGUCAUAAGCAUAUCGAACUAUGGCGACCAUGUUUAACUCAUCCAAAGCAUGAACGAGAGAGGAAAGGGCAACAGCUGCCGCCUCAUCAUCCUUUGCCAACAGAGGAUUGAGCAUCA
B13: chr1:109605286:109605287:-_ENSG00000197780_ENST00000461096|hu_mus|hu_hu_hu_mus_True|78_108 (ssRNA)
RNA: GGGAGUUCUACAGUCCGACGAUCAAGAACAAUAACAACAUUCAGUAACCUCUUUAACAAUUGUAAUCCUUAUUAUAAGCUAAGCAGAAUAAUAAUUUAAUACCGUAAGUGAACUACACACAAAGCCUGAACCGCGAAAAUGGUCAACAGAGGAUUGAGCAUCA
B14: chr2:144966258:144966259:-_ENSG00000121964_ENST00000344850|hu_mus|FALSE|FALSE (ssRNA)
RNA: GGGAGUUCUACAGUCCGACGAUCUGUGCGUGCUCUCCAGUGCCAUUUCUUUGCAGGAAGAGUGUACAACACGCAGUCAUCUAAUUCUUCUCGGAGCAGCUCUACCAGCUGUCGAUGGGAGCCUCCAUAAAAUGCCUCGAUGAUCAACAGAGGAUUGAGCAUCA
B15: chr10:106022761:106022762:+_ENSG00000148834_ENST00000369713|hu_mus|FALSE|FALSE (ssRNA)
RNA: GGGAGUUCUACAGUCCGACGAUCGAAUUCGUUCUCCAACGCUUCCCUUAGGUUCGGAGAGUCUUCCUUUCUCUUCGACCUAACAAAGCUUGCAAUCAAAGGCGGCACCUUAGAGAAUGACUCAAGGGUCAUCUUCUGACGUGCCAACAGAGGAUUGAGCAUCA
B16: chr12:90018129:90018130:-_ENSG00000070961_ENST00000261173|hu_hu|FALSE|FALSE (ssRNA)
RNA: GGGAGUUCUACAGUCCGACGAUCCUCAGCAAGCCAUGGUCUUUUCUGAACCCAGAAGGUGUCAAUGACAAAAUAUAAUACUAGAAUGAUAACUGUGAUGGCAGACAUCAACAGACCUGCUUUGCCAAUCUGAACAGCCAGUUUCAACAGAGGAUUGAGCAUCA
B17: chr4:76721835:76721836:+_ENSG00000138768_ENST00000264904|hu_mus|hu_hu_hu_mus_True|48_88 (ssRNA)
RNA: GGGAGUUCUACAGUCCGACGAUCGUUUGGCUGGGGUUUCUGAGACGUCUGGAAUACUAACUCAUGUUUGCUAAUAAAUCCUAGUUUUCUAUGAAAUUUCUCUUUGCCAAUCCUCUUCUCUAUUAGUUGCUUUAGUUUCUCUUUCAACAGAGGAUUGAGCAUCA
B18: chr6:145182920:145182921:-_ENSMUSG00000030265_ENSMUST00000032399|mus_mus|motif|central (ssRNA)
RNA: GGGAGUUCUACAGUCCGACGAUCCUCCUCUUGACCUGCUGUGUCGAGAAUAUCCAAGAGACAGGUUUCUCCAUCAAUUACGGCUUGUUUCCUGUAGGAGUCCUCUAUCGUAGGGUCAUACUCAUCCACAAAGUGAUUCUGAAUCAACAGAGGAUUGAGCAUCA
B19: chr2:48026839:48026840:+_ENSG00000116062_ENST00000540021|hu_hu|hu_hu_hu_mus_False|1_58 (ssRNA)
RNA: GGGAGUUCUACAGUCCGACGAUCAUAGUGAGCCACUAGCGUCCUAAAUCUGGAACAGUGGCGGUCAUCCGAAAACUGACCUAUGAAAAACUUGCCCAGUGAAGUGUCCACAAAGCAAACACCAUACACACGAGUGUGGCCAGACAACAGAGGAUUGAGCAUCA
B20: chr11:86029109:86029110:-_ENSMUSG00000018068_ENSMUST00000018212|mus_mus|FALSE|FALSE (ssRNA)
RNA: GGGAGUUCUACAGUCCGACGAUCGUGAACAAGUUUAGCAAUGUUGGGAUCUGCAAUGUACAUUUGGUGUAACAGGCAACAGAUAAGGCACUGAACUUCCCGAAGGUUACAGAGCAAAUUGUCUUCUCCUUCUUCUGUUUCUUUCAACAGAGGAUUGAGCAUCA
B21: chr7:141438946:141438947:+_ENSG00000106028_ENST00000265304|hu_mus|hu_hu_hu_mus_True|8_8 (ssRNA)
RNA: GGGAGUUCUACAGUCCGACGAUCGACGAAAUACCUGUAACACAGGUCUUCGAAACAUGGCUUCUGUUUUUCUUACAACCUAAUCUUUAGGCUUUUCCUAAAGGAAAGAAAGAAAAGAGAAAAAUGAGCAGGGGAUCAACUACACAACAGAGGAUUGAGCAUCA
B22: chr14:76904430:76904431:+_ENSMUSG00000022010_ENSMUST00000022587|mus_mus|mus_mus_mus_hu_True|18_98 (ssRNA)
RNA: GGGAGUUCUACAGUCCGACGAUCUGCAGCCAAAAACAGAGAGAGGGAAAAAAAGAGGGAACACCAGCAGCCUUGUAUAAGCUAGAUAAAAUCUUCUGGCUUUCCGCAGCCCAGGGAGUGAGAACGGACGGCAGCCCUAAUUUACAACAGAGGAUUGAGCAUCA

Target: T1, UNK ZnF1-3
Test: nsRBNS (natural sequence RNA bind-n-seq); RBNS binding buffer (assumed for nsRBNS): 25 mM Tris pH 7.5, 150 mM KCl, 3 mM MgCl2, 0.01% Triton X-100, 500 ug/ml BSA, 20 U/ml SUPERase-In, 4 C; UNK is unkempt and MSI1 is Musashi-1; names of the RNAs are library labels; protein concentration not given here; high values mean tight binding

Binder | binding signal [enrichment R]
B1 | 0.911
B2 | 0.985
B3 | 1.4
B4 | 1.53
B5 | 0.885
B6 | 1.34
B7 | 0.696
B8 | 0.81
B9 | 0.595
B10 | 0.93
B11 | 0.565
B12 | 2.03
B13 | 0.99
B14 | 0.661
B15 | 0.202
B16 | 1.48
B17 | 0.407
B18 | 0.564
B19 | 1.19
B20 | 0.964
B21 | 0.556
B22 | 2.77
